Measurements reported in patent EP1222921B1, “Pharmaceutical compositions of tizoxanide and/or nitazoxanide” (Romark Laboratories, L.C., priority 1997, dated 1998).

Test system: BCG (Bacille de Calmette et Guerin)
Settings: 4 mg/mouse per day in 0.2 ml of sunflower oil

CC(=O)Oc1ccccc1C(=O)Nc1ncc([N+](=O)[O-])s1 [Nitazoxanide, 2-(acetolyloxy)-N-(5-nitro 2-thiazoly) benzamide]
results in treated mice versus izoniazide group: comparable to the group receiving izoniazide
